Measured values reported in publication PMC6018503.
Results are given in words; binding and its absence hold for the method and conditions named.

By UniProt entry, the sequences of proteins in these tests, tags left out.
UniProt Q93ZX1: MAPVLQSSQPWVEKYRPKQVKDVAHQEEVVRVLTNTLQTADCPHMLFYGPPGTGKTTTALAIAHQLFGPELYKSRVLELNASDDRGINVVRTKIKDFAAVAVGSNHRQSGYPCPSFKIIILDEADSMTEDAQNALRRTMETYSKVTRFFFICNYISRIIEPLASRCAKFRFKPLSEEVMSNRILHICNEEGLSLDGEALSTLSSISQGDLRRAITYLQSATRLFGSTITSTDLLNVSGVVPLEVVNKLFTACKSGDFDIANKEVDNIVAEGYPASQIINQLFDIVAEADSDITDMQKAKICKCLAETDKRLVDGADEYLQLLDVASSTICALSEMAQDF

Experiments:
Test in all cases: two-hybrid; yeast two-hybrid; full-length ORFs in pGADT7 (AD) and pGBKT7 (BD); co-transformed strains spotted on SD-L-T and SD-L-T-H-A plates; empty AD or BD plasmids as negative controls
[1] = target: T1, AtRFC5 (Arabidopsis thaliana) (UniProt Q8VXX4)
T1 sequence: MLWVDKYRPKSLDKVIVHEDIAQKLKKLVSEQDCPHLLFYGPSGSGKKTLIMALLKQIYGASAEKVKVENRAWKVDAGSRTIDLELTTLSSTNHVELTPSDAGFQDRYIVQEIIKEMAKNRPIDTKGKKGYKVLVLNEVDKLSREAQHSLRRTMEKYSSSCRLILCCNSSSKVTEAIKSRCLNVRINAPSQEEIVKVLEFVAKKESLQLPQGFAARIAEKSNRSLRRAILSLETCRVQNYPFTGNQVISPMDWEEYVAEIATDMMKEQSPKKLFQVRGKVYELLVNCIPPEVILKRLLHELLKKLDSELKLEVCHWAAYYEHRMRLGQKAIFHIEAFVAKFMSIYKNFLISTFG

[2] = target: AtRFC4 (Arabidopsis thaliana) (UniProt Q93ZX1)
[3] = target: T2, AtRFC2 (Arabidopsis thaliana) (UniProt Q9CAM7)
T2 sequence: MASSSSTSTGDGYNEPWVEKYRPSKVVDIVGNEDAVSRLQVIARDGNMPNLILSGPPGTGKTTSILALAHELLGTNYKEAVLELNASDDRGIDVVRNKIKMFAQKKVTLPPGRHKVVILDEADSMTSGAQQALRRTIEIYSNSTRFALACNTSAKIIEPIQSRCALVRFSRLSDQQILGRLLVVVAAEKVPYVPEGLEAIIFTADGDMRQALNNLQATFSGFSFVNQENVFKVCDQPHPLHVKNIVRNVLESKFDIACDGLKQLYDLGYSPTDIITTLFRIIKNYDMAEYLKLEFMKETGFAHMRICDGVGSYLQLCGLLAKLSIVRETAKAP

binding [1]: no binding
binding [2]: no binding
binding [3]: no binding
B1: AtRFC1 (protein, UniProt Q9C587 1-956)
chain: MSDIRKWFMKAHEKGNGSAPKSTSSKAGPVKNAAETAPIKSEQASEDLETADRRKTSKYFGKDKTKVKDEKEVEAIPAKRKLKTESDDLVKPRPRKVTKVVDDDDDDFDVPISRKTRDTTPSKKLKSGSGRGIASKTVDNDDDDDGEDKETPLKSAGRGRGGRAAPGASTGGRGRGGGRGGFMNFGERKDPPHKGEKEVPEGTPDCLAGLTFVISGTLDSLEREEAEDLIKRHGGRITGSVSKKTTYLLCDEDIGGRKSEKAKELGTKFLTEDGLFDIIRSSKPVKKSLPERSNKGTEKICAPPKTSPQKEETRGKPLAKSSPKKVPPAKGKNKIIETSLPWTEKYRPKVPNEIVGNQSLVTQLHNWLSHWHDQFGGTGSKGKGKKLNDAGSKKAVLLSGTPGIGKTTSAKLVSQMLGFQAVEVNASDSRGKANSNIAKGIGGSNANSVKELVNNEAMAANFDRSKHPKTVLIMDEVDGMSAGDRGGVADLIASIKISKIPIICICNDRYSQKLKSLVNYCLPLNYRKPTKQQMAKRLMHIAKAEGLEINEIALEELAERVNGDIRLAVNQLQYMSLSMSVIKYDDIRQRLLSSAKDEDISPFTAVDKLFGYNGGKLRMDERIDLSMSDPDLVPLLIQENYLNYRPSGKDEAKRMDLLARAAESIADGDIINVQIRRYRQWQLSQSCCVASSILPASLLHGSREVLEQGERNFNRFGGWLGKNSTAGKNRRLMEDLHVHVLASRESSAGRETLRVDYLPLLLSRLTSPLQTLPKDEAVSEVVDFMNSYSISQEDFDTILELGKFKGRENPMEGVPPPVKAALTKKYNEMNKTRMVRVADMVQLPGVKKAPKKRIAAMLEPTVDSLRDEDGEPLADNEEGNGSDAEEDSEEATDGEKLESNLKNLNARGIQVELDLKGAGSSGSRKAAGKGRGRGKAADTSAEKKATGRGSGAKRKR
